Measurements taken from PubChem BioAssay (Tox21).
The inconclusive results got no clear call from the source; some entries with a clear call stand among them for comparison. Where the call is inconclusive, the potency comes from a doubtful curve fit. Activity calls are given as the source filed them. Calls come from the whole dose curve; as a rule, active = well fitted activation curve with a large enough effect in the signal ratio in the repeat runs (not every such curve was filed as active); inconclusive = weak or mixed curves; inactive = flat fitted curve, though single readings scatter; the % refers to the signal ratio.

Experiment: qHTS assay to identify small molecule agonists of the hypoxia (HIF-1) signaling pathway (AID 1224846)
Details: HRE-bla ME-180 cells, beta-lactamase ratio, 17 h; activation: at 76.8 µM (top of the series) unless noted
Procedure, shortened: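 In ME-180 cells bearing an HRE-bla construct, 17 h treatment with DMSO-dissolved compounds at 37C was followed by CCF4-AM loading to quantify reporter induction.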
% is set by controls: 0 for no effect and ±100 for the full control effect; potency is the fitted concentration of half-maximal effect; tags give direction and shape of the fitted curve or compound fluorescence and quenching.

Row | SMILES | Potency | activation
1 | CCN(CC)CCCC(C)Nc1c2ccc(Cl)cc2nc2ccc(OC)cc12 (centres undefined) | inconclusive: 26.8 µM [falling, single point] | –
2 | COc1cc(-c2ccc(N=C=O)c(OC)c2)ccc1N=C=O | inconclusive: 23.8 µM [falling, partial curve] | –
3 | Cc1ccc(C(C)(C)C)cc1 | inactive | –
4 | CC1(C)CCC(C)(C)c2cc(NC(=O)c3ccc(C(=O)O)cc3)ccc21 | inactive | –
5 | CC1=NC(C)OC1C (centres undefined) | inactive | –
6 | CCOC(=O)O[C@]1(C(=O)OCCl)CC[C@H]2[C@@H]3CCC4=CC(=O)C=C[C@]4(C)[C@H]3[C@@H](O)C[C@@]21C | inconclusive: 3.38 µM [rising, partial curve] | –
7 | CCC/C=C/C=O | inactive | –
8 | c1ccc(C[P+](c2ccccc2)(c2ccccc2)c2ccccc2)cc1 | – | inconclusive: 0.031%
9 | CCN(CC)c1ccc2c(c1)Oc1cc(N(CC)CC)ccc1C21OC(=O)c2ccccc21 | inactive | –
10 | CN1CCN(C2=Nc3cc(F)ccc3Cc3ccccc32)CC1 | inactive | –
11 | CO[C@@]12[C@H](COC(N)=O)C3=C(C(=O)C(C)=C(N)C3=O)N1C[C@@H]1N[C@@H]12 | inconclusive: 10.7 µM [falling, partial curve] | –
12 | CC[C@H](NC(=O)c1cc(F)ccc1NS(=O)(=O)c1cccc2cccnc12)c1ccccc1 | inconclusive: 52 µM | –
13 | Cc1c(C(=O)NN2CCCCC2)nn(-c2ccc(Cl)cc2Cl)c1-c1ccc(Cl)cc1 | inconclusive: 26.8 µM [falling, single point] | –
14 | CO[Si](OC)(OC)OC | inactive | –
15 | CCCc1nc2c(C)cc(-c3nc4ccccc4n3C)cc2n1Cc1ccc(-c2ccccc2C(=O)O)cc1 | – | inconclusive: 5.03% [at 35.5 µM]
16 | CCN(CC)C(=O)/C(C#N)=C/c1cc(O)c(O)c([N+](=O)[O-])c1 | inconclusive: 13.4 µM [falling, full curve] | –
17 | COC(=O)C1=C(C)NC(C)=C(C(=O)OC(C)(C)CN(C)CCC(c2ccccc2)c2ccccc2)C1c1cccc([N+](=O)[O-])c1 (centres undefined) | inconclusive: 23.9 µM [falling, single point] | –
18 | Nc1cccc2c(N)cccc12 | inactive | –
19 | Nc1ccc2c3c(cccc13)-c1ccccc1-2 | inconclusive: 39.3 µM [rising, partial curve] | –
20 | CCCCCCCC/C=C\CCCCCCCCN | inactive | –

Row | SMILES | Potency | activation
21 | CC1=CC(=O)CC(C)(C)C1 | inconclusive: 5.04 µM [falling, full curve] | –
22 | Fc1ccc([C@@H]2CCNC[C@H]2COc2ccc3c(c2)OCO3)cc1 | inactive | –
23 | CCN1CCOCC1 | inactive | –
24 | O=C1NC(=O)[C@@H]2CC=CC[C@H]12 | inconclusive: 30.9 µM [rising, partial curve] | –
25 | O=C(O)CCCCCCCCCCCC(=O)O | inconclusive: 60.7 µM [falling, single point] | –
26 | CCCCCCCCCCCCCCCO | inactive | –
27 | Cc1[nH]cnc1C[C@H]1CCc2c(C)c3ccccc3n2C1=O | inconclusive: 38 µM [falling, partial curve] | –
28 | CCCCCCCCCCCC(=O)OCC(C)OC(=O)CCCCC(=O)O (centres undefined) | inconclusive: 21.3 µM [falling, partial curve] | –
29 | CC(C)(C)CC(C)(C)c1ccc(OCCO)cc1 | inconclusive: 1.94 µM [falling, single point] | –
30 | CCCCCCCCc1ccc(S(=O)(=O)O)cc1 | inconclusive: 34.4 µM [falling, single point] | –
31 | C/C=C(C)/C=C/C=C(C)C | inconclusive: 48.4 µM [rising, partial curve, poor fit] | –
32 | O=S(=O)(c1ccc(OCc2ccccc2)cc1)c1ccccc1O | inconclusive: 54.9 µM | –
33 | C=C[Si](OC(C)=O)(OC(C)=O)OC(C)=O | inactive | –
34 | c1cc(N(CC2CO2)CC2CO2)ccc1Cc1ccc(N(CC2CO2)CC2CO2)cc1 (centres undefined) | inconclusive: 54.9 µM [single point] | –
35 | O=C1C=CC(=O)N1c1cccc(N2C(=O)C=CC2=O)c1 | inconclusive: 11 µM [falling, full curve] | –
36 | O=C(/C=C/c1ccc([N+](=O)[O-])cc1)c1ccccc1 | inconclusive: 55.1 µM [falling, single point] | –
37 | COC(=O)C1=C(C)NC(C)=C(C(=O)OCCN2CCN(C(c3ccccc3)c3ccccc3)CC2)C1c1cccc([N+](=O)[O-])c1 (centres undefined) | inconclusive: 16.9 µM [falling, partial curve] | –
38 | COc1ccc(-c2cc(=S)ss2)cc1 | inconclusive: 19 µM [falling, partial curve] | –
39 | CCCCCCC[N+](CC)(CC)CCCCc1ccc(Cl)cc1 | inconclusive: 6.01 µM [falling, full curve] | –
